Laboratory results published in article PMC4336329 (PLoS ONE, 2015).
Among all 310,000 compounds or so, about 2,200 (0.71%) showed an effect of 50% or more. Effects have a minus sign here. This is one part of the list.

Biological target: human ether-à-go-go-related gene (hERG) potassium channel (human, UniProt Q12809)
Experiment: primary screen, population patch clamp on CHO cells stably expressing hERG

Sequence of human ether-à-go-go-related gene (hERG) potassium channel (Q12809 whole entry, looked up): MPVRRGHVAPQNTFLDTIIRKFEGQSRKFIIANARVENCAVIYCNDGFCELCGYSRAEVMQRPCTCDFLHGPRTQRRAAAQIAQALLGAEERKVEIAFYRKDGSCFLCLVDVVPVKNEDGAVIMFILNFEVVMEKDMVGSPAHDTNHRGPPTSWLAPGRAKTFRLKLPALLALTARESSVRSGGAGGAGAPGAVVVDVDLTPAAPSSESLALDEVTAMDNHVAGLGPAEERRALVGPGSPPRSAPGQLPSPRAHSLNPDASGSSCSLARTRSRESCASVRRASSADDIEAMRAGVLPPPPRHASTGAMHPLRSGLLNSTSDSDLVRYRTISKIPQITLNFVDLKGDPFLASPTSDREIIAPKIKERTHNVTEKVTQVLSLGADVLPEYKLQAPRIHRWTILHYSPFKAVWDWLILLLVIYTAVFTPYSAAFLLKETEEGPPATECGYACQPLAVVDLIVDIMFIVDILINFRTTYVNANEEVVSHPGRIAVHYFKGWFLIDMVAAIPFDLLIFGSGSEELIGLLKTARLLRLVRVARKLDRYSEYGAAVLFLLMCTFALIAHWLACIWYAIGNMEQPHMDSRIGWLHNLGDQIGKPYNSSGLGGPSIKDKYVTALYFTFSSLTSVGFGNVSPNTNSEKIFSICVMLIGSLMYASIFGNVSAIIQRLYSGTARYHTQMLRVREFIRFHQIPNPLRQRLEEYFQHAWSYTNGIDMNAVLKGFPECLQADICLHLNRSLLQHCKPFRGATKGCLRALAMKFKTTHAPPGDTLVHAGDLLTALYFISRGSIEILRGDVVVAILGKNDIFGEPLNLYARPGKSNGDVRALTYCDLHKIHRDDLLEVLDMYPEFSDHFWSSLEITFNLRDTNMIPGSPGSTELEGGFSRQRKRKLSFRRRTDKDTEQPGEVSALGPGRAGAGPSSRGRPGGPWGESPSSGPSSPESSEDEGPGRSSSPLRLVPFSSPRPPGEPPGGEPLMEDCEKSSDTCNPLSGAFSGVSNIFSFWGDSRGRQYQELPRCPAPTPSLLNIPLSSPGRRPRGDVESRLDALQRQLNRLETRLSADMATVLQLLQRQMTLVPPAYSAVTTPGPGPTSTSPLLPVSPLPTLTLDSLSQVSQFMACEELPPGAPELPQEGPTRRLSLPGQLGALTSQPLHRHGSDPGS

| Structure (SMILES) | hERG current change (%, negative = inhibition) at 1uM |
| --- | --- |
| CSc1nc2ccc(NC(=O)NC(=O)c3c(F)cccc3F)cc2s1 | 8.52% |
| Cc1cc(C)c(S(=O)(=O)N2CCN(C(=O)CCOc3ccccc3C)CC2)c(C)c1 | 0.271% |
| CC1(C)CC2CC(C)(CN2C(=O)c2cccs2)C1 (stereo not shown) | 12.5% |
| CCCN1CCC(=O)N([C@H](CSc2ccc(OC)cc2)c2ccccc2)CC1 | -81.7% |
| Cc1ccccc1CS(=O)(=O)Cc1ccc(C(=O)NC2CCCC2)o1 | 12.4% |
| O=C(/C=C/c1ccco1)N1CCN(c2ncccn2)CC1 | 8.29% |
| O=S(=O)(NCC1CCN(Cc2ccccc2)CC1)c1ccccc1C(F)(F)F | 3.27% |
| CCCNC(=O)Cn1c(=O)oc2cc(S(=O)(=O)N3CCCC3)ccc21 | 16.1% |
| Cc1cc(C)c(C#N)c(SCc2cn3c(C)cccc3n2)n1 | 12.5% |
| Cn1c(CCNC(=O)c2cccs2)nnc1SCC(=O)Nc1nc(-c2ccccc2)cs1 | -1.1% |
| CC(=O)c1ccc(C(=O)N2CCc3c([nH]c4ccccc34)C2c2cccc(C)n2)s1 (stereo not shown) | 0.389% |
| NS(=O)(=O)c1ccc(CCNC(=O)CCCCCn2c(=S)[nH]c3ccc(Br)cc3c2=O)cc1 | 5.08% |
| CCCCOc1ccc(OCCSc2nc3ccccc3n2CC(=O)O)cc1 | 7.96% |
| CCOc1ccc(C(=O)C[n+]2ccccc2C)cc1.[Cl-] | 1.44% |
| CCCNS(=O)(=O)c1ccc(NC(=O)c2cccnc2)cc1 | 2.58% |
| CC(C)(C)NC(=O)c1cc(-c2ccc3c(c2)OCO3)nc2ccccc12 | 11.9% |
| COCCSc1nc2c(c(=O)[nH]c(=O)n2C)n1Cc1cccc(C)c1 | -5.69% |
| Cc1occc1-c1nnc(SCC(=O)N(C)C)o1 | 1.48% |
| COc1ccc(C(=O)N/N=C/c2ccc3cccc(OCc4ccccc4)c3n2)cc1 | 19.3% |
| O=C(NNC(=O)C1CCN(Cc2ccccc2)CC1)c1cccs1 | 10.4% |
| Cc1ccc(SCC(=O)Nc2ccc(N3CCOCC3)cc2)cc1 | 15.7% |
| CCOC(=O)C1=C(C)NC(SCC(=O)O)=NC1c1ccccc1 (stereo not shown) | 4.73% |
| O=C(NCC1CCCO1)C1CC(=O)N(c2ccccc2)C1 (stereo not shown) | 3.98% |

| Structure (SMILES) | hERG current change (%, negative = inhibition) at 1uM |
| --- | --- |
| O=C(NNC(=S)Nc1ccccc1Cl)c1ccncc1 | 8.21% |
| O=C(c1cccs1)N1CCCC(N2CCN(c3cccc(C(F)(F)F)c3)CC2)C1 (stereo not shown) | -8.83% |
| Cc1ccc(OCc2ccc(C(=O)Nc3nccs3)o2)cc1C | 1.14% |
| Cc1cccc(N(CC(=O)NCc2ccco2)C(=O)CCC(=O)Nc2nccs2)c1C | 16.1% |
| COc1ccccc1CNS(=O)(=O)c1ccc(NC(C)=O)cc1 | -1.75% |
| COc1ccc(OC)c(NC(=O)c2ccc3c(c2)C(=O)N(CC2CCCO2)C3=O)c1 (stereo not shown) | 15% |
| O=C1CCCN1C(=O)CSc1nnnn1-c1ccccc1 | 4.1% |
| Cc1ccc(N2C(=O)C3CCCN3C2=S)cc1 (stereo not shown) | 15.7% |
| CCOC(=O)CCCCC(=O)c1[nH]c(=O)[nH]c1CSc1nc(-c2ccccc2)c(C#N)c(=O)[nH]1 | 15.8% |
| O=S(=O)(Nc1ccc(F)cc1)N1CCCCCC1 | 0.267% |
| N#Cc1ccc(S(=O)(=O)NCC(=O)OCC(=O)N2CCCC2=O)cc1 | 5.65% |
| Cc1cc2nc[nH]c2cc1[N+](=O)[O-] | 7.43% |
| CCCCC(SCC(=O)Nc1ccccc1)C(=O)O (stereo not shown) | 6.96% |
| O=C(O)C1(c2ccccc2)CCN(S(=O)(=O)c2ccc(Cl)cc2)CC1 | 19.3% |
| O=C(O)CCn1c(SCCc2ccccc2)nc2ccccc21 | 12% |
| Cc1ccc(NC2=C(Cl)C(=O)OC2OC(C)C)c(C)c1 (stereo not shown) | 4.91% |
| O=C(O)C1CCCCC1C(=O)NCCc1cccc(Cl)c1 (stereo not shown) | -9.09% |
| O=C(CCCn1c(=S)[nH]c2ccccc2c1=O)N1CCCCC1 | 0.194% |
| CC(=O)Nc1ccc(SCC(=O)NC(=O)c2ccccc2Br)cc1 | 11.1% |
| O=C(CN(c1ccc(F)cc1)S(=O)(=O)c1ccccc1)NC1CCCCCC1 | 7.28% |
| Cn1cc(Cl)c(C(=O)OCC(=O)Nc2nc(-c3ccc(Br)cc3)cs2)n1 | 6.21% |
| O=C(NCc1cccnc1)C(=O)NCC1OCCN1S(=O)(=O)c1cc(F)ccc1F (stereo not shown) | 2% |
| Cc1cc(C)c(Cn2c3ccccc3c3cnn(CC(=O)NCc4ccccn4)c(=O)c32)c(C)c1 | 15.2% |

| Structure (SMILES) | hERG current change (%, negative = inhibition) at 1uM |
| --- | --- |
| CCCCN(C)C(=O)CCC(=O)NNc1nc2ccccc2c2nc(C)nn12 | 7.84% |
| Cc1cccc(NC(=O)/C=C/c2ccc(Cl)cc2)n1 | 4.04% |
| O=c1oc(-c2cccs2)nc2ccc(Br)cc12 | 10% |
| Cc1c(NC(=O)C(C)Sc2ccccc2)c(=O)n(-c2ccccc2)n1C (stereo not shown) | 0.452% |
| COCCCNC(=O)CCNS(=O)(=O)c1ccc(C)cc1 | 5.15% |
| C/C(=N\NC(=O)COc1ccc(C#N)cc1)c1ccc(N2CCOCC2)cc1 | 8.8% |
| Cc1ccc(S(=O)(=O)N2[C@@H](c3ccccc3F)C(C(=O)O)=CC[C@H]2c2cccs2)cc1 | 15.2% |
| CC(C)NC(=S)N=Nc1c(O)[nH]c2ccc([N+](=O)[O-])cc12 | 18.4% |
| COc1nc(N)nc(NC(=O)c2cccs2)c1N=O | 17.7% |
| COc1cc(C(=O)N2CCSCC2)ccc1OC1CCN(C(C)=O)CC1 | 5.62% |
| COc1ccc(-n2cc(CN3CCC(OC)CC3)c(-c3cccc(F)c3)n2)cc1 | 19.9% |
| Cc1ccc(N2C(=O)N(c3ccc(C)cc3)C3CS(=O)(=O)CC32)cc1 (stereo not shown) | 14.3% |
| O=S(=O)(Nc1cccc2ncccc12)c1cccc(C(F)(F)F)c1 | 13.3% |
| CCC(=O)NNc1cc(=O)c2c(=O)n(C)c(=O)n(C)c2[nH]1 | 4.54% |
| CC(=O)c1cc(C#N)c(SCc2ccc([N+](=O)[O-])cc2)nc1C | 10.4% |
| CCN1CCCC1CN(Cc1cc2cc(OC)ccc2[nH]c1=O)C(=O)NCc1ccccc1 (stereo not shown) | -8.13% |
| C#CCCc1ccccc1/C=[N+](/C)[O-] | 16.5% |
| CC[n+]1c(C)sc2cc(C)ccc21.[I-] | 11.3% |
| CCc1ccc(C2CC(c3ccccc3Cl)Nc3nc(N)nn32)cc1 (stereo not shown) | 14.6% |
| O=C(c1ccc(S(=O)(=O)N2CCCC2)cc1)N1CCN(c2cccc(Cl)c2)CC1 | -4.13% |
| COc1ccc(-c2cc(=O)oc3cc(OCC(=O)Nc4ccc(CCO)cc4)ccc23)cc1 | 8.93% |
| CCCCOC(=O)c1ccccc1C(=O)OCc1ccccc1 | 14.5% |
| Cc1cc(C)cc(OCC(=O)Nc2cccc(S(=O)(=O)NC3=NCCC3)c2)c1 | 7.29% |

| Structure (SMILES) | hERG current change (%, negative = inhibition) at 1uM |
| --- | --- |
| CCC(C)NC(=O)c1cc(Cl)ccc1OC (stereo not shown) | -5.91% |
| FC(F)(F)c1ccc(CNCCc2c[nH]c3ccccc23)cc1.O=C(O)C(=O)O | 1.31% |
| Cc1cc(C(=O)CCl)c(C)n1-c1c(C)n(C)n(-c2ccccc2)c1=O | 9.82% |
| CCOC(=O)c1nc2ccccc2nc1C | 3.37% |
| Cn1c(=O)n(C)c2cc(/C=C(/C#N)C(=O)NCc3ccco3)ccc21 | 12.7% |
| Cc1cc(OCc2nc(-c3cccnc3)no2)c(C)cc1Br | 7.39% |
| O=C(Nn1c(SCc2ccc(F)cc2)nc2ccsc2c1=O)c1ccccc1 | 10.4% |
| CCCCSc1nc(C)c(C(C)=O)cc1C#N | 9.76% |
| CC1(C)CC(NC(=O)C(Cl)(Cl)Cl)CC(C)(C)N1 | 9.15% |
| CC(=O)Nc1nc2ccccc2[nH]1 | 1.74% |
| O=[N+]([O-])c1ccc2nc(NS(=O)(=O)c3ccccc3[N+](=O)[O-])sc2c1 | 16% |
| Cc1cc(C)n2c(Br)c(CN3CCCC(C)C3)nc2n1 (stereo not shown) | 27.9% |
| Cc1oc2c(CN3CCCC3)c(O)ccc2c(=O)c1Oc1ccccc1Br | 4.09% |
| CN(C)CCn1c(SCc2ccccc2C#N)nc2c(sc3ccccc32)c1=O.Cl | 10.2% |
| Clc1cccc(CN2CCSCC2)c1 | 12.6% |
| CC1CCN(C(=O)CSc2nnc(Cc3cccn3C)n2-c2ccc(F)cc2)CC1 | 3.05% |
| CN(Cc1ccccn1)C(=O)C1CCC(=O)N(CCc2ccc(Cl)cc2)C1 (stereo not shown) | -17.4% |
| COc1ccc(N(C(=O)CNC(=O)c2cccs2)C(C(=O)NCC2CCCO2)c2ccccc2)cc1OC (stereo not shown) | 7.78% |
| COc1cc(Cl)ccc1OCc1cc(C(=O)NCCCN2CCCC2=O)no1 | 11.4% |
| COc1ccccc1NC(=S)N1CCN(C(=O)C2CCCO2)CC1 (stereo not shown) | 12.9% |
| COc1ccc(C2/C=C\CN(C(=O)C3CCCCC3)CC(=O)N2Cc2ccc(F)cc2)cc1 (stereo not shown) | 6.71% |
| CCOC(=O)N/N=C(\C)c1ccc(-n2cnnn2)cc1 | 18.5% |
